Results published in publication PMC9911399, “Two distinct binding modes provide the RNA-binding protein RbFox with extraordinary sequence specificity”.
Where a chain is given by its changes, count along the chain named. Some of the results follow.

T1: RBFOX1 RRM (Homo sapiens, UniProt Q9NWB1 109-208)
T1 sequence: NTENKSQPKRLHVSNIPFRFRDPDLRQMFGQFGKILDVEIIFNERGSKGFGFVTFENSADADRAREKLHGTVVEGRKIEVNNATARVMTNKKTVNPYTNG

B1: UCGUCAA (DNA:RNA)
RNA: GGGAGACCGGAAUUCAGAUUGUCCUCGUCAAUUAAAUCCCGUCGUAGCCACCA
DNA 1: CAATCTGAATTCCGGTCTCCC
DNA 2: TGGTGGCTACGACGGGATT
B2: AGGUGUG (DNA:RNA)
RNA: B1 RNA with U25A, C26G, C29G, A30U, A31G
DNA 1: CAATCTGAATTCCGGTCTCCC
DNA 2: TGGTGGCTACGACGGGATT
B3: CUUUCGU (DNA:RNA)
RNA: B1 RNA with U25C, C26U, G27U, A30G, A31U
DNA 1: CAATCTGAATTCCGGTCTCCC
DNA 2: TGGTGGCTACGACGGGATT
B4: GGUAGUG (DNA:RNA)
RNA: GGGAGACCGGAAUUCAGAUUGUCCGGUAGUGUUAAAUCCCGUCGUAGCCACCA
DNA 1: CAATCTGAATTCCGGTCTCCC
DNA 2: TGGTGGCTACGACGGGATT
B5: CCCUGAG (DNA:RNA)
RNA: B1 RNA with U25C, G27C, C29G, A31G
DNA 1: CAATCTGAATTCCGGTCTCCC
DNA 2: TGGTGGCTACGACGGGATT
B6: CAGGUCA (DNA:RNA)
RNA: B1 RNA with U25C, C26A, U28G, C29U, A30C
DNA 1: CAATCTGAATTCCGGTCTCCC
DNA 2: TGGTGGCTACGACGGGATT
B7: UCGAGGC (DNA:RNA)
RNA: B1 RNA with U28A, C29G, A30G, A31C
DNA 1: CAATCTGAATTCCGGTCTCCC
DNA 2: TGGTGGCTACGACGGGATT
B8: CUGGCCA (DNA:RNA)
RNA: B1 RNA with U25C, C26U, U28G, A30C
DNA 1: CAATCTGAATTCCGGTCTCCC
DNA 2: TGGTGGCTACGACGGGATT
B9: UACGUCG (DNA:RNA)
RNA: B4 RNA with G25U, G26A, U27C, A28G, G29U, U30C
DNA 1: CAATCTGAATTCCGGTCTCCC
DNA 2: TGGTGGCTACGACGGGATT
B10: CCCAUGU (DNA:RNA)
RNA: B4 RNA with G25C, G26C, U27C, G29U, U30G, G31U
DNA 1: CAATCTGAATTCCGGTCTCCC
DNA 2: TGGTGGCTACGACGGGATT
B11: GGAGGGA (DNA:RNA)
RNA: B4 RNA with U27A, A28G, U30G, G31A
DNA 1: CAATCTGAATTCCGGTCTCCC
DNA 2: TGGTGGCTACGACGGGATT
B12: GAAUACG (DNA:RNA)
RNA: B4 RNA with G26A, U27A, A28U, G29A, U30C
DNA 1: CAATCTGAATTCCGGTCTCCC
DNA 2: TGGTGGCTACGACGGGATT
B13: GUUGACA (DNA:RNA)
RNA: B4 RNA with G26U, A28G, G29A, U30C, G31A
DNA 1: CAATCTGAATTCCGGTCTCCC
DNA 2: TGGTGGCTACGACGGGATT
B14: AUAUAAC (DNA:RNA)
RNA: B1 RNA with U25A, C26U, G27A, C29A, A31C
DNA 1: CAATCTGAATTCCGGTCTCCC
DNA 2: TGGTGGCTACGACGGGATT
B15: GUGUUAC (DNA:RNA)
RNA: B1 RNA with U25G, C26U, C29U, A31C
DNA 1: CAATCTGAATTCCGGTCTCCC
DNA 2: TGGTGGCTACGACGGGATT
B16: GGACGGG (DNA:RNA)
RNA: B4 RNA with U27A, A28C, U30G
DNA 1: CAATCTGAATTCCGGTCTCCC
DNA 2: TGGTGGCTACGACGGGATT
B17: UAACGCA (DNA:RNA)
RNA: B1 RNA with C26A, G27A, U28C, C29G, A30C
DNA 1: CAATCTGAATTCCGGTCTCCC
DNA 2: TGGTGGCTACGACGGGATT
B18: CGAAAUA (DNA:RNA)
RNA: B4 RNA with G25C, U27A, G29A, G31A
DNA 1: CAATCTGAATTCCGGTCTCCC
DNA 2: TGGTGGCTACGACGGGATT
B19: AGUUGUC (DNA:RNA)
RNA: B4 RNA with G25A, A28U, G31C
DNA 1: CAATCTGAATTCCGGTCTCCC
DNA 2: TGGTGGCTACGACGGGATT
B20: CAUUCGC (DNA:RNA)
RNA: B1 RNA with U25C, C26A, G27U, A30G, A31C
DNA 1: CAATCTGAATTCCGGTCTCCC
DNA 2: TGGTGGCTACGACGGGATT
B21: CCCAAGG (DNA:RNA)
RNA: B4 RNA with G25C, G26C, U27C, G29A, U30G
DNA 1: CAATCTGAATTCCGGTCTCCC
DNA 2: TGGTGGCTACGACGGGATT
B22: UACCAGU (DNA:RNA)
RNA: B1 RNA with C26A, G27C, U28C, C29A, A30G, A31U
DNA 1: CAATCTGAATTCCGGTCTCCC
DNA 2: TGGTGGCTACGACGGGATT
B23: AAAGGGU (DNA:RNA)
RNA: B4 RNA with G25A, G26A, U27A, A28G, U30G, G31U
DNA 1: CAATCTGAATTCCGGTCTCCC
DNA 2: TGGTGGCTACGACGGGATT
B24: UGGCACG (DNA:RNA)
RNA: B4 RNA with G25U, U27G, A28C, G29A, U30C
DNA 1: CAATCTGAATTCCGGTCTCCC
DNA 2: TGGTGGCTACGACGGGATT
B25: GAAUGUU (DNA:RNA)
RNA: B4 RNA with G26A, U27A, A28U, G31U
DNA 1: CAATCTGAATTCCGGTCTCCC
DNA 2: TGGTGGCTACGACGGGATT
B26: GGUAUCG (DNA:RNA)
RNA: B4 RNA with G29U, U30C
DNA 1: CAATCTGAATTCCGGTCTCCC
DNA 2: TGGTGGCTACGACGGGATT
B27: CUUAGAA (DNA:RNA)
RNA: B4 RNA with G25C, G26U, U30A, G31A
DNA 1: CAATCTGAATTCCGGTCTCCC
DNA 2: TGGTGGCTACGACGGGATT
B28: GGCGUGC (DNA:RNA)
RNA: B4 RNA with U27C, A28G, G29U, U30G, G31C
DNA 1: CAATCTGAATTCCGGTCTCCC
DNA 2: TGGTGGCTACGACGGGATT
B29: GUUACCC (DNA:RNA)
RNA: B4 RNA with G26U, G29C, U30C, G31C
DNA 1: CAATCTGAATTCCGGTCTCCC
DNA 2: TGGTGGCTACGACGGGATT
B30: UCUUACG (DNA:RNA)
RNA: B1 RNA with G27U, C29A, A30C, A31G
DNA 1: CAATCTGAATTCCGGTCTCCC
DNA 2: TGGTGGCTACGACGGGATT
B31: CGCAGUC (DNA:RNA)
RNA: B4 RNA with G25C, U27C, G31C
DNA 1: CAATCTGAATTCCGGTCTCCC
DNA 2: TGGTGGCTACGACGGGATT

Biological target: T1, RBFOX1 RRM
Experiment: EMSA; HiTS-Eq, 1 nM pool, 10 min; buffer printed only for the single-RNA assays: 10 mM Tris pH 7.5, 150 mM NaCl, 3.4 mM EDTA, 0.001% NP-40, 30 C
Conditions: tags: His6 N-terminal (pET28a); label: 5' 32P
In short: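 Purified RbFox RRM, wild type or mutant, was incubated for 10 min in 50 µL with 1 nM of a 5′-radiolabelled RNA pool carrying 7 randomized nucleotides, whose flanks were annealed to DNA oligonucleotides, over a series of increasing protein concentrations. Unbound RNA was resolved on 8% native PAGE, cut out, reverse-transcribed, barcoded by PCR and sequenced on an Illumina HiSeq 2500. Relative association constants were derived from changes in read counts for each RNA species versus the control reaction and normalised to the cognate motif.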

Binder	binding signal
B1	0.00628 KA relative to UGCAUGU
B2	0.0178 KA relative to UGCAUGU
B3	0.012 KA relative to UGCAUGU
B4	0.0137 KA relative to UGCAUGU
B5	0.00564 KA relative to UGCAUGU
B6	0.00946 KA relative to UGCAUGU
B7	0.0115 KA relative to UGCAUGU
B8	0.0131 KA relative to UGCAUGU
B9	0.014 KA relative to UGCAUGU
B10	0.00331 KA relative to UGCAUGU
B11	0.0147 KA relative to UGCAUGU
B12	0.00661 KA relative to UGCAUGU
B13	0.0097 KA relative to UGCAUGU
B14	0.00176 KA relative to UGCAUGU
B15	0.0181 KA relative to UGCAUGU
B16	0.0204 KA relative to UGCAUGU

Binder	binding signal
B17	0.0094 KA relative to UGCAUGU
B18	0.00179 KA relative to UGCAUGU
B19	0.0173 KA relative to UGCAUGU
B20	0.00716 KA relative to UGCAUGU
B21	0.00883 KA relative to UGCAUGU
B22	0.00668 KA relative to UGCAUGU
B23	0.00943 KA relative to UGCAUGU
B24	0.0541 KA relative to UGCAUGU
B25	0.0282 KA relative to UGCAUGU
B26	0.00827 KA relative to UGCAUGU
B27	0.00737 KA relative to UGCAUGU
B28	0.0292 KA relative to UGCAUGU
B29	0.0047 KA relative to UGCAUGU
B30	0.0065 KA relative to UGCAUGU
B31	0.01 KA relative to UGCAUGU
